This note sets out measurements from the RNAGym collection of RNA variant scans (doi:10.1093/nar/gkz1192).

Sequences and labels used below:
B1: CPEB3 Ribozyme (parent)
chain: UAACAGGGGGCCACAGCAGAAGCGUUCACGUCGCAGCCCCUGUCAGAUUCUGGUGAAUCUGCGAAUUCUGCUGUAUAUCUC

Read counts are not given, so values of variants with three or more changes are uncertain.

In this series the parent is B1. Kind of series: self-cleavage, relative activity (ratio to wild type); higher = more cleavage; in vitro, sequencing. The procedure, abridged:
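Relative activity compares each variant's cleaved/total read fraction with that of the unmutated ribozyme. To get these fractions, barcoded CPEB3 ribozyme libraries from rounds of error-prone PCR were transcribed with T7 RNA polymerase for 5 hours at 37°C and then given 15 min of DNase I treatment before EDTA was added. The RNAs were reverse transcribed with template switching and sequenced on Illumina, and DNA sequencing linked barcodes to variants. A minimum of 5 reads applied, and three batches were averaged.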
Take UAACAGGGGGCCACAGCUGAAGCGUUCGCGUCGCAGCCCCUGUCAGAUUCUGGUGAAUCUGCGAAUUCUGCUGUACAUCUC [A18U A28G U76C]: the self-cleavage stood at 0.54.

Turning to UAACAGGGGGCCACAGCUGAAGCGUUCGCGUCGCAGCCCCUGUCAGAUUCUGGAGAAUCUGCGAAUUCUGCUGUAAAUCUC [A18U A28G U54A U76A], the self-cleavage was 0.22.

For UAACAGGGGGCCACAGCUGAAGCGUUCGCGUCCCAGCCCCCGUCAGAUUCUGGUGAAUAUGCGAUUUCUGCUGUAUAUCUC [A18U A28G G33C U41C C59A A65U], the self-cleavage came to 0.11.

In the case of UAACAGGGGGCCACAGCUGAAGCGUUCACGUCGCUGCCCCUGUCAGAUUCUGGUGAAUCUGCGAGUUCUGCUGUAUAUCUC [A18U A35U A65G], the self-cleavage was determined as 0.28.

As to UAACAGGGGGCCACAGCUGAAGCGUUCUCGUCGCAGCCCCUGUCAGAUUCUGGUGAAUCUGCGAGUUCCGCUGCAUACCUC [A18U A28U A65G U69C U74C U78C], the self-cleavage was 0.13.

Turning to UAACAGGGGGCCACAGCUGAAGCGUUCGCGUCGCAGCCCCUGCCAGAUUCUGGUGAAUCUGCAAAUUCAGCUUUAUUUCUC [A18U A28G U43C G63A U69A G73U A77U], the self-cleavage came out at 0.89.

Take UAACAGGGGGCCACAGCUGAAGCGUUCUCGUCGCAGCCCCAGUCAGAUUCUGGUGAAUCUGCGAAUUCUGCUGUAUAUCUC [A18U A28U U41A]: the self-cleavage was 0.2.

In the case of UAACAGGGGGCCACAGCUGAAGCGUUCACGUCGCUGCCACUGUCAGAUUCUGGUGAAUCUGCGAAUUCUGCUGUAUAUCUC [A18U A35U C39A], the self-cleavage is 0.29.

Turning to UAACAGGGGGCCACAGCUGAAGCGUUCUCGUCGCAGCCCCUGUCAGAUUCUGGUGAGUCCGCGAAUUCUGCUGUUUAUCUC [A18U A28U A57G U60C A75U], the self-cleavage is 0.14.

As for UAACAGGGGGCCACAGCUGAAGCGUUCGCGUCGCUGCCCCAGUCAGAUUCUGGUGAAUCUGCGAAUUCUGCUGUUUAUCUC [A18U A28G A35U U41A A75U], the self-cleavage amounted to 0.16.

For the variant UAACAGGGGGCCACAGCUGAAGCGUUCUCGGCGCAGCCCCUGUCAGAUUCUGGUGAAUCUGCGAAUUCUGCUGUAUAUCUC [A18U A28U U31G], the self-cleavage was determined as 0.13.

As for UAACAGGGGGCCACAGCUGAAGCGUUCACGUCGCGGCCCCUGUCAGAUUCUGGUGAAUCUGCGAAUCCUGCUGUAUAUCUC [A18U A35G U67C], the self-cleavage came out at 0.15.

Regarding UAACAGGGGGCCACAGCUGAAGCGUUCACGUCGCAGCCCCUGUCGGGUUCUGGUGAAUCUGCGAAUCCUGCUGUAUAUCUC [A18U A45G A47G U67C], the self-cleavage was 0.15.

Consider UAACAGGGGGCCACAGCUGAAGCGUUCGCUUCGCAGCCCCUGUCAGAUUCUGGUGGAUCUGCGAAUACUGCUGUAUAUCUC [A18U A28G G30U A56G U67A], for which the self-cleavage came out at 0.08.

For UAACAGGGGGCCACAGCUGAAGCGUUCACGUCGCGGCCCCGGUCAGAAUCUGGUGAAUCUGCGAAUUCUGCUGUAUAUCUC [A18U A35G U41G U48A], the self-cleavage is 0.34.

UAACAGGGGGCCACAGCUGAAGCGUUCACGUCGCUGCCCCUGCCAGAUUCUGGUGAAUCUGCGAAUUCUGCUGUAUAUCUC [A18U A35U U43C]: the self-cleavage is 0.15.

On to UAACAGGGGGCCACAGCUGAAGCGUUCGCGUCGCAGCCCCCGCCAGGUUCUGGUGAAUCUGCGAAUUCUGCUGUAUAUCUC [A18U A28G U41C U43C A47G], for which the self-cleavage is 0.47.

Turning to UAACAGGGGGCCACAGCUGAAGCGUUCACGUCGCGGCCCCUGUCAGAUCCUGGUGAAUCAGCGAAUUCUGCUGUAUAUCUC [A18U A35G U49C U60A], the self-cleavage worked out at 0.15.

In the case of UAACAGGGGGCCACAGCUGAAGCGUUCUCGCCGCAGCCCCUGUCAGAUUCUGGUGAGUCUGCGAAUUCUGCUGUAUAUCUC [A18U A28U U31C A57G], the self-cleavage was 0.08.

With UAACAGGGGGCCACAGCUGAAGCGUUCACGUCGCUGCCCCCGUCAGAUUCUGGUGAAUCUGCGAGUUCUGCUGUAUAUCUC [A18U A35U U41C A65G], the self-cleavage is 0.42.

Take UAACAGGGGGCCACAGCUGAAGCGUUCACGUCGCGGCCCCUGUCAGAUUCAGGUGAACCUGCGAAUUCUGCUGUAUAUCCC [A18U A35G U51A U58C U80C]: the self-cleavage was determined as 0.48.

With UAACAGGGGGCCACAGCUGAAGCGUUCACGUCGCUGCCCCUGUCAGAUUCUAGUGAAUCUGCGAAAUCCGCCGUAUAUCUC [A18U A35U G52A U66A U69C U72C], the self-cleavage came out at 0.1.

Regarding UAACAGGGGGCCACAGCUGAAGCGUUCUCGUCGCAGCCCCUGUCAGAUUCUGGUGAAAAUGCGAAUUCUGCUGUAUAUCUC [A18U A28U U58A C59A], the self-cleavage was found to be 0.14.

For UAACAGGGGGCCACAGCUGAAGCGUUCGCGUCGCAGCCCCUGUCAGAUUCCGGUGAAUCCGCGAAUUCUGCUGUAUAUCUC [A18U A28G U51C U60C], the self-cleavage stood at 0.1.

Turning to UAACAGGGGGCCACAGCUGAAGCGUUCACGUCGCUGCCCCUGUCAGAUUCUGGGGGAUCUACGAAUUCUGCUGUAUAACUC [A18U A35U U54G A56G G61A U78A], the self-cleavage was found to be 0.05.

Consider UAACAGGGGGCCACAGCUGAAGCGUUCACGUCGCAGCCCCUGUCCGAUUCUGGUGAAUCUGCGAAUUCUGCUGUGUAUCUC [A18U A45C A75G], for which the self-cleavage amounted to 0.33.

Regarding UAACAGGGGGCCACAGCUGAAGCGUUCACGUCGCUGCCCCUGUCAGAUUCUGGUGAAUCUGCGAAUUCUGCUGCAUAUCUC [A18U A35U U74C], the self-cleavage is 0.28.

UAACAGGGGGCCACAGCUGAAGCGUUCACGUCGCGACCCCCGUCAGAUUCUGGUGAAUCUGCGAGUUCUGCUGCAUAUCUC [A18U A35G G36A U41C A65G U74C]: the self-cleavage turned out to be 0.29.

For UAACAGGGGGCCACAGCUGAAGCGUUCGCGUCGCAGCCCCUGUCAGAUUCUGGUGAAUCUGCGAAUUCUGCUGUCUGACUC [A18U A28G A75C A77G U78A], the self-cleavage amounted to 0.52.

Turning to UAACAGGGGGCCACAGCUGAAGCGUUCUCGUCGCAGCCCCUAUCAGAUUCUGGUGAGUCUGAGUAUUCUGCUGUAUAUCUC [A18U A28U G42A A57G C62A A64U], the self-cleavage was 0.06.

On to UAACAGGGGGCCACAGCUGAAGCGUUCACGUCGCGGCCCCUGUCAGAUUCUGGUGUAUCUGCGAAUUAUGCUGUAUAUCUC [A18U A35G A56U C68A], for which the self-cleavage is 0.39.

Consider UAACAGGGGGCCACAGCUGAAGCGUUCACGUCGCGGCCCCUGUCAGAUUCUGGCGAAUCUGCGAAUUCUGCUGUAUAUCUC [A18U A35G U54C], for which the self-cleavage amounted to 0.72.

For UAACAGGGGGCCACAGCUGAAGCGUUCACGUCGCGGCCCCUGUCAGAUUCUGGUGAAUCUGCGAACUCUGCUGUAUAUCUC [A18U A35G U66C], the self-cleavage came out at 0.38.

Consider UAACAGGGGGCCACAGCUGAAGCGUUCACGUCGCGGCCCCUGACAGAUUCUGGUGAAUCUGCGAAUUCUGCUGUAUAUCUC [A18U A35G U43A], for which the self-cleavage was 0.92.
